# The whole screen tested about 350,000 compounds, of which about 2,100 (0.6%) were called active. This list was built around the results that the source calls inconclusive (neither active nor inactive); the mix of calls is not that of the screen.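 The calls were made as follows: active = activity change of -60% or lower, but not beyond a set lower limit; inconclusive = change between -60% and -40%, or beyond the set limit; inactive = change above -40%.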
# Target: Relaxin receptor 1 (Homo sapiens) (UniProt Q9HBX9)
# Assay: qHTS Assay for Antagonists of the Relaxin Receptor RXFP1
# Conditions: HEK293-RXFP1, relaxin-stimulated cAMP HTRF, 30 min; at 57.5 µM; stronger effect = lower value
# % is scaled to controls: 0 for no effect and ±100 for the full control effect.
# UniProt Q9HBX9, sequence (Q9HBX9 whole entry, looked up): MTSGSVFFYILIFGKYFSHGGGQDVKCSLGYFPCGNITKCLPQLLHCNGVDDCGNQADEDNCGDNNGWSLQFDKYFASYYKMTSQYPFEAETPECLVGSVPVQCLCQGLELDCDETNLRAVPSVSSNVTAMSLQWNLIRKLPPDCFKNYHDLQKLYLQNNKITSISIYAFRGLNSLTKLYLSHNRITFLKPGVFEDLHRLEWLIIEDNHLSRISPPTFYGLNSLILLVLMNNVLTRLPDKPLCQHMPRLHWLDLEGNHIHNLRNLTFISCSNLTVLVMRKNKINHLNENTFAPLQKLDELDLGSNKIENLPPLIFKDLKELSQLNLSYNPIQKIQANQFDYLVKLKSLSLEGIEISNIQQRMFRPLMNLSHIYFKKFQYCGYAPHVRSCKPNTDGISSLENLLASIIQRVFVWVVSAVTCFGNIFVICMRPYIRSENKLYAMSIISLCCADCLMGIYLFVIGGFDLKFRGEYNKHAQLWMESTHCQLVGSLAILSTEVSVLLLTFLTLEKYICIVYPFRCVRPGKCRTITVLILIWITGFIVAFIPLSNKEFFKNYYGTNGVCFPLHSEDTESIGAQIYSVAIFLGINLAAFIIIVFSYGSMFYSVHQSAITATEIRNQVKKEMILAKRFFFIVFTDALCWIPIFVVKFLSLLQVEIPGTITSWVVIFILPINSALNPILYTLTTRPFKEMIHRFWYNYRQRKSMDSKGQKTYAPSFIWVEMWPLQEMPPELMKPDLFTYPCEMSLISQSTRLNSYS
row,SMILES,"activity change, negative = inhibition"
1,CC(C)n1cc(/C=C2/NC(=O)NC2=O)c2ccccc21,inconclusive: -41.5%
2,COc1ccccc1NC(=O)CN1CCN(CC(=O)Nc2ccc(F)cc2)CC1,inactive: -3.13%
3,CN(C)c1ccc(C(CC(=O)O)C(=O)O)cc1 (stereo not given),inconclusive: -54.3%
4,Cc1cccc(NC(=O)C[n+]2cccc(C)c2)c1,inactive: 10.7%
5,Cc1ccc2c(CC(=O)NNC(=O)c3ccccc3O)coc2c1,inconclusive: -41.3%
6,CCOC(=O)N1CCN(C(=O)CCN2C(=O)c3ccccc3S2(=O)=O)CC1,inconclusive: -59.1%
7,C=C1c2cccc(O)c2C(O)=C2C(=O)[C@]3(O)C(O)=C(C(N)=O)C(=O)[C@@H](N(C)C)[C@@H]3[C@@H](O)[C@H]12,active: -70.1%
8,CN(Cc1ccccc1F)C(=O)c1ccc(Oc2ccccc2)cc1,inconclusive: -52.8%
9,CCOCCn1ccc2c(OCC(=O)Nc3ccc(OC)c(OC)c3)cccc2c1=O,inactive: -9.24%
10,O=C(Cn1cc(SCc2ccc(F)cc2)c2ccccc21)N1CCCCCC1,inconclusive: -41.9%
11,Cc1ccc(C)c(CSc2cn(CC(=O)N3CCCC3)c3ccccc23)c1,active: -74.1%
12,CC(C)OCC(O)CN1CCC(Cc2ccccc2)CC1 (stereo not given),inactive: -13.1%
13,COc1ccccc1C(=O)n1nc(-c2ccc(Cl)cc2)nc1N,inconclusive: -40.5%
14,C/C(=N\Nc1ccc2nncn2n1)c1ccco1,inactive: -19.5%
15,COc1c(Br)cc(/C=N/n2c(-c3ccccc3)n[nH]c2=S)c(O)c1Br,inconclusive: -41%
16,COCc1cc(CN(C)C(=O)C2CCC(=O)N(Cc3cccc(OC)c3)C2)[nH]n1 (stereo not given),active: -78%
17,CCC12CN3CC(CC)(CN(C1)C3c1c[nH]c3ccccc13)C2=O (stereo not given),inconclusive: -41.9%
18,CCOC(=O)c1nc(NCc2ccccc2)sc1C,inactive: -4.74%
19,Cc1c(C(=O)N(C)Cc2ccccc2)sc2nc(-c3ccc(F)cc3)cn12,active: -67.6%
20,CCOc1ccc(C(=O)COc2ccc(NC(C)=O)cc2)cc1,inconclusive: -49.4%
21,Cc1cccc(NC(=O)CN2C(=O)N/C(=C\c3ccc(-c4cccc(C(=O)O)c4)o3)C2=O)c1,inconclusive: -49%
22,O=C(Cn1nc(CNc2ccc(Br)cc2)[n+]2c1CCCCC2)c1ccc([N+](=O)[O-])cc1,inactive: -5.04%
23,COc1ccc(C(C)=O)cc1CN1C(=O)NC2(CCCCCCC2)C1=O,inactive: -13.9%
24,Nc1ccc(Br)c2cccnc12,active: -64.9%
25,CC(=O)c1c(C)[nH]c(C(=O)COC(=O)CNS(=O)(=O)c2ccccc2)c1C,inactive: -12.7%
26,COc1ccc(CN(Cc2ccco2)C(=O)COc2ccc(Cl)cc2C)cc1,inconclusive: -43.4%
27,CCC(=O)N1N=C(c2ccc(Cl)cc2)CC1c1ccco1 (stereo not given),active: -63.7%
28,COc1ccc([N+](=O)[O-])c(C=CC(=O)c2ccccn2)c1,inactive: -20.2%

row,SMILES,"activity change, negative = inhibition"
1,CCN1CCN(Cc2c(O)ccc3oc(C)c(C(=O)Nc4ccc(OC)cc4)c23)CC1,inactive: 1.63%
2,CC(OC(=O)c1ccc2c(c1)OCCO2)C(=O)NC1CCCCC1C (stereo not given),active: -72.5%
3,CCCCNC(=O)C(CC)Sc1nnc(-c2ccc(F)cc2)c(-c2ccc(F)cc2)n1 (stereo not given),inconclusive: -45.7%
4,c1ccc2c(NC3C4CC5CC(C4)CC3C5)nc(N3CCOCC3)nc2c1 (stereo not given),active: -78.7%
5,O=C(CC1SC(=O)N(c2ccccc2)C1=O)Nc1ccc(Br)cc1 (stereo not given),inconclusive: -43.9%
6,C/C(=N\NC(=O)c1ccccn1)c1ccc(Cl)cc1,inconclusive: -41.2%
7,Cc1ccc(C2(CCNCc3ccc(N(C)C)cc3)CCOC(C(C)C)C2)cc1 (stereo not given),inconclusive: -40.6%
8,COc1ccc(S(=O)(=O)Nc2cc(S(=O)(=O)N3CCOCC3)ccc2OC)cc1,inactive: -4.1%
9,COc1ccc(N(CC(=O)Nc2c(C)n(C)n(-c3ccccc3)c2=O)S(=O)(=O)c2ccc(F)cc2)cc1,inactive: 2.97%
10,CC(=O)NC(c1ccccc1)c1cc([N+](=O)[O-])c2cccnc2c1O (stereo not given),inconclusive: -42.8%
11,O=C(Nc1cccc2ccccc12)/C(=C/c1cccc([N+](=O)[O-])c1)NC(=O)c1cccs1,inactive: -11.2%
12,O=C(COc1ccccc1/C=C1\SC(=O)NC1=O)Nc1ccc(F)cc1,inconclusive: -43.3%
13,CCOc1ccccc1N1CCN(S(=O)(=O)c2cc(C)ccc2OC)CC1,inconclusive: -46.5%
14,CC(/C=N/n1c(-c2cc(C)[nH]n2)n[nH]c1=S)=C\c1ccccc1,inconclusive: -41.9%
15,COc1ccc(/C=N/Nc2nc(-c3cccc(S(=O)(=O)N4CCCC4)c3)cs2)cc1OC,inactive: -4.08%
16,Cc1ccc(-n2c(SCC(=O)Nc3ccc4c(c3)OCO4)nnc2-c2cccs2)cc1,inactive: -24.8%
17,Cn1c(=O)c2c([nH]c(=S)n2Cc2ccc(Cl)cc2)n(C)c1=O,inactive: -10.9%
18,CC(=O)c1ccc(S(=O)(=O)NCCC(=O)NC2CCN(Cc3ccccc3)CC2)cc1,inconclusive: -56.3%
19,COc1ccccc1N1CCN(C(=O)CCCn2c(=S)[nH]c3ccccc3c2=O)CC1,active: -65.2%
20,O=C(CSc1nnc(CNc2ccc(Cl)cc2)n1Cc1ccccc1)NCc1ccco1,inactive: -7.7%
21,CCC(C)NCCOCCOc1cc(C)c(Cl)c(C)c1 (stereo not given),inconclusive: -43.3%
22,CCOCc1c(C(=O)Nc2ccc3nc(N4CCOCC4)sc3c2)oc2ccccc12,inconclusive: -49.8%
23,O=C(CSCc1cnn(-c2ccccc2)c1-n1cccc1)NCc1ccc(F)cc1,inconclusive: -58.8%
24,O=C1CC2(CCN(C(=O)C3CC(=O)N(c4ccccc4)C3)CC2)Oc2ccccc21 (stereo not given),inactive: -4.06%
25,CCCCc1ccc(NC(=O)CSc2nc(=O)n(CCN(C)C)c3c2CCC3)cc1,active: -85.3%
26,NS(=O)(=O)c1ccc(NC(=O)/C=C/c2cn(-c3ccccc3)nc2-c2cccc(Cl)c2)cc1,inconclusive: -43.5%
27,CC1=NN(c2ccccc2)C(=O)C1C=Nc1ccc(N(C)C)cc1 (stereo not given),active: -68.9%

# Reference: PubChem BioAssay AID1259400 (National Center for Advancing Translational Sciences (NCATS), 2018)
